The chains are these.
T1: UNK ZnF1-3 (human, UniProt Q9C0B0 31-174)
T1 sequence: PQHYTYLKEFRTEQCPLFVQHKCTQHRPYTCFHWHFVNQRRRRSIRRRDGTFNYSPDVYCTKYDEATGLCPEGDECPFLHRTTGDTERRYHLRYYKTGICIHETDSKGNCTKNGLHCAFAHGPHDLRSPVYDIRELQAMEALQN

B1: chrX:153712385:153712386:-_ENSG00000102178_ENST00000369660|hu_hu|FALSE|FALSE (ssRNA)
RNA: GGGAGUUCUACAGUCCGACGAUCUUAAACAAAUUGCCUUUAUUGUUAAACCAAUGAUUGGAUAUCAGAAACAGCCUAGCUAAUAUAGCUCCUUUUGGAUAAAAGUAGAAGCCUCACAUUCACCUUUAAUGUUAUUUCACUUUUCAACAGAGGAUUGAGCAUCA
B2: chr11:87793471:87793472:-_ENSMUSG00000020483_ENSMUST00000020775|mus_mus|mus_mus_mus_hu_False|18_88 (ssRNA)
RNA: GGGAGUUCUACAGUCCGACGAUCUGGACUUGAAAAUAAAAGAAUAAGCUAGAUUUCCCACCCCCCCACAUUGUCAACCCUACACGAGAGUUUUGAAGGCGACUCAUGAAAAUCAGCCUCAAUUGGCGCAAUGACCACCCCACCCAACAGAGGAUUGAGCAUCA
B3: chr2:198351390:198351391:-_ENSG00000144381_ENST00000345042|hu_hu|hu_hu_hu_mus_False|1_58 (ssRNA)
RNA: GGGAGUUCUACAGUCCGACGAUCUCAUUCCCACCCUCCACAGAAAGGCUGCUUCUGAACUCUCAUGUGGUGACACAGCACUAAAAUCCUGAUGCUCACAGAACAGUAGAGAUGCCUCAGUGAUUUAAGUUGAAAGCAGCAGUACAACAGAGGAUUGAGCAUCA
B4: chr14:28255117:28255118:+_ENSMUSG00000040651_ENSMUST00000022450|mus_mus|FALSE|FALSE (ssRNA)
RNA: GGGAGUUCUACAGUCCGACGAUCAACAACAUCGCCUACUGCCCCAGCCUCCAAAGGAUUAGCCUGUAAGAGAUCUGCAUACCUACAAAGAUAGAUACCCAUGGAAGGACUGCCAAGAACUGUUAUUUUGGAUUGGCCCACCUGCAACAGAGGAUUGAGCAUCA
B5: chr2:131829505:131829506:-_ENSG00000152102_ENST00000409185|hu_hu|FALSE|FALSE (ssRNA)
RNA: GGGAGUUCUACAGUCCGACGAUCUCCAGGAUACAUGUUAGGAGAAUAGGCAGGAGCUGCUGCUGCAUAGCCCAUGGGAAAACCAGCUGGAUAACCAAUUCCUUUGGCAUUUGCAUAGGGAACCCCAGAAGAUCCAGGACUAUACAACAGAGGAUUGAGCAUCA
B6: chr11:62363965:62363966:-_ENSG00000149480_ENST00000278823|perfect_dup|motif|central (ssRNA)
RNA: GGGAGUUCUACAGUCCGACGAUCCAAUCUUUUCUGCUGAAUAUACCGGUCUGUGGUUUUCCACAUGUAAUAAAACUGGACGGUGCUUGCAAGUGACUUCCAGGGUAGAAAGUCCUGGCGGAUAUCAUUGAAAUCCUUCCCGUACAACAGAGGAUUGAGCAUCA
B7: chr4:107545374:107545375:+_ENSMUSG00000028613_ENSMUST00000106731|mus_hu|motif|central (ssRNA)
RNA: GGGAGUUCUACAGUCCGACGAUCUGAUGGAUAGCCACAAAGCAUAAUCAUCUUAUUUACAAAAAACAAAUGCCCCAAAACCGGAAAAAGCCCCCCCAGCAACCAAACAUCUUCUGUAAAUAUAGUUUUUAAAUGAUGAGUAAGCAACAGAGGAUUGAGCAUCA
B8: chr1:107181519:107181520:-_ENSMUSG00000047496_ENSMUST00000058688|mus_mus|motif|central (ssRNA)
RNA: GGGAGUUCUACAGUCCGACGAUCUCACCACUCUGGAUCCCUCUUCUCAAGCUCACAGGGCAUCGAGCAUUCACAAAUGUGCGGAUUUCUGAAUCUGUCACGCGUCCCUUUCACCCCCUUCUGCGUGUUGACAUCAAGUGGAAACAACAGAGGAUUGAGCAUCA
B9: chr5:110835399:110835400:-_ENSG00000164211_ENST00000296632|hu_hu|FALSE|FALSE (ssRNA)
RNA: GGGAGUUCUACAGUCCGACGAUCUGAGAGCCUGUCUCAAAAUUUAAAAAAAAAAAAGUGAAAAUGCCCUCUCUUAGAUAGCUAUUUACUUUAGGAAUAAAACCAAACAUUGUACUAGUGAACCAAAAACAUUUCAAAUUUUUCCAACAGAGGAUUGAGCAUCA
B10: chr6:40197388:40197389:+_ENSMUSG00000057716_ENSMUST00000061740|mus_mus|mus_mus_mus_hu_False|88_98 (ssRNA)
RNA: GGGAGUUCUACAGUCCGACGAUCGAGACACUGGGGUGGAUGGCACCUCAGUUUGGGUGGGUGCUAGCCACUAAGACUGUUAUUUUGGGAUUCAUGGCCUUGAAUAUCAAGAGGGAAAGGAAGAGGAUGGAAAGAGUCAAGAGUCAACAGAGGAUUGAGCAUCA
B11: chr2:63824656:63824657:+_ENSG00000014641_ENST00000394423|hu_hu|motif|central (ssRNA)
RNA: GGGAGUUCUACAGUCCGACGAUCGGUAUUGGCUGGAUUACCCACAACAAUAACCUUAACUGACUUCUUGGCGUAUUUAUCGGAGGCUGCACCCUGGGAUUUGAAGAUUUUCACAUUUGCUUUCAGUAAAUCUUUUCUCUCCAUCAACAGAGGAUUGAGCAUCA
B12: chr12:39756943:39756944:-_ENSG00000139116_ENST00000544797|hu_mus|hu_hu_hu_mus_False|78_78 (ssRNA)
RNA: GGGAGUUCUACAGUCCGACGAUCGGUUUGGCUGUUACCCCCAAGGGAAUCCUGCAAUAGUCUUGUUAGCUUAGAGUCUCUGUAAGGGACAUGGGUGGCUCUCUUGCUCUUGUCCCCCAAGGCGCUGAUUACAUUCCCAAGAGCCAACAGAGGAUUGAGCAUCA
B13: 30185271_30188328_2573_CDS_ENSMUSG00000024827_ENSMUST00000025778|mouse|control|control (ssRNA)
RNA: GGGAGUUCUACAGUCCGACGAUCCAUCUUAAUGUAAGCCCAUGAAAUGGGCAGGAUGGAGCUGGAACCCCACGGGGCUGCACUGACAGUGCCCACGGGCCAGGUGCCUUCAGUUGGCUUUAUGGAAAUGACGGGGUGGCUGGGCAACAGAGGAUUGAGCAUCA
B14: chr6:38652254:38652255:-_ENSG00000124767_ENST00000373365|hu_hu|hu_hu_hu_mus_False|8_108 (ssRNA)
RNA: GGGAGUUCUACAGUCCGACGAUCCGAAAACUUCAUAGCAGGGAAGUCAAGCUUCUGCAGGAGGGUCAGUCCAAGAACCCUCGUAUAAAAAUCCAGGGACUUCUUAGGAUCCUUAAUUCUUAGCAUCGUCUGCUGCAGUAGAAACAACAGAGGAUUGAGCAUCA
B15: chr2:9725471:9725472:-_ENSG00000134308_ENST00000238081|hu_mus|FALSE|FALSE (ssRNA)
RNA: GGGAGUUCUACAGUCCGACGAUCUGAAAAGCAGACUGAGACAGUUUCCAAUUCCACACAAGUAAAUGUUAAGUUGUCUCUAAGCAACUGCAUGAUGAGGGUGCUGUCUUUGUAGGAGUCUUCGUUCAGUGUAUCAAGCUCUGCCAACAGAGGAUUGAGCAUCA
B16: 31079749_31080365_821_CDS_ENSMUSG00000029168_ENSMUST00000114729|mouse|control|control (ssRNA)
RNA: GGGAGUUCUACAGUCCGACGAUCCUCCAUUUCUGCUUUCACCUUGGGUGCCCACCAGGUGAUCCCCACAUGGAGGGCAUAGUCACAGCAGACCUUGGGGUCAGCUAGAGCCCUGCACUUCUCAUAGGCUUCCACGAGGGAGGUCAACAGAGGAUUGAGCAUCA
B17: 32740393_32740513_11099_CDS_ENSG00000115760_ENST00000421745|human|control|control (ssRNA)
RNA: GGGAGUUCUACAGUCCGACGAUCCUUAUUACAUUGUUGUGGGACAUGAUGGCGCCUGAGUUUGUCCUGGGAAAUAUCUAUUGACUGGGCAAUGCUUUCUGAGCUAGAAAUGUGGCUAAAGCAGAAACUAGCCAGACUCCUCACCAACAGAGGAUUGAGCAUCA
B18: chr8:125728745:125728746:-_ENSMUSG00000000743_ENSMUST00000000759|mus_mus|FALSE|FALSE (ssRNA)
RNA: GGGAGUUCUACAGUCCGACGAUCUCCUCACUGUGGAGGGAUGAAGAGCUUGCUGCCAGCUGCCAGAUGUGACUGACUCAGGCUCCCUCUGUUAGCCAGCCAGGCUCUCCCUUGGAGAAGGCUGAAAGCAGCAGCCUUUGUCUACAACAGAGGAUUGAGCAUCA
B19: 112641268_112645010_655_CDS_ENSG00000150593_ENST00000280154|human|control|control (ssRNA)
RNA: GGGAGUUCUACAGUCCGACGAUCCUGGUCAUCAUCAUAGUUAGGAUCUUUCACAUCCACCUCCUCCACAUCAUACACCUGUCCAGGUGUACCCCAGACACCUUUGCCUCCUGCACCACCUUUCUUUGGUAGUCCCCUUCCUUUCAACAGAGGAUUGAGCAUCA
B20: chr8:117878989:117878990:-_ENSG00000164754_ENST00000297338|hu_hu|hu_hu_hu_mus_True|1_8 (ssRNA)
RNA: GGGAGUUCUACAGUCCGACGAUCCCAGAGGCCCUCGUUUACUGAGGACAAAAUGUGCGUAGAACAUUUUUCUUAUUUGCUAUGAAAUAAGAAGAAACCUGGAUCUCGGCGGGGAGCCGGGAGGGGUUGGGUGGCCCGGGGAGGCAACAGAGGAUUGAGCAUCA
B21: chr3:33038425:33038426:-_ENSG00000170266_ENST00000307363|hu_hu|motif|central (ssRNA)
RNA: GGGAGUUCUACAGUCCGACGAUCAGGUGGGGCUUUGGCACUGCAGGGAUGCAGGGAAACCUCAGGUGAAAAUGCACAUCCGGAAUUCCUUUUCCAUUUCCACAUUCCAAUCAGUGAAAUGUGGCAUGACAGGGAGGAUCUGUGCAACAGAGGAUUGAGCAUCA
B22: chr7:65705844:65705845:+_ENSG00000169902_ENST00000304842|hu_mus|hu_hu_hu_mus_False|28_108 (ssRNA)
RNA: GGGAGUUCUACAGUCCGACGAUCAAAAGGAUCUUUAUUACAUAAAUAAGGUGCCGGCUCCCCAUGUUUAACAAUGACCUCCAGAAGGAAGGCUUGCAUGGCAGAAUCCAGCACUUCAUCUGUGACACCCGCCUCAUCCAAGCGCAACAGAGGAUUGAGCAUCA

Some of the results follow.

In this test the target is T1, UNK ZnF1-3. Briefly: nsRBNS (natural sequence RNA bind-n-seq); RBNS binding buffer (assumed for nsRBNS): 25 mM Tris pH 7.5, 150 mM KCl, 3 mM MgCl2, 0.01% Triton X-100, 500 ug/ml BSA, 20 U/ml SUPERase-In, 4 C; UNK is unkempt and MSI1 is Musashi-1; names of the RNAs are library labels; protein concentration not given here; high values mean tight binding.
With B1, the binding signal was found to be 0.826 enrichment R.

With B2, the binding signal turned out to be 2 enrichment R.

Regarding B3, the binding signal was found to be 1.27 enrichment R.

For B4, the binding signal was 1.86 enrichment R.

Take B5: the binding signal was found to be 1.19 enrichment R.

B6: the binding signal turned out to be 1.31 enrichment R.

Molecule B7 gave a binding signal of 2.72 enrichment R.

In turn, B8 displayed a binding signal of 1.45 enrichment R.

As to B9, the binding signal is 2.67 enrichment R.

B10 gave a binding signal of 1.61 enrichment R.

In turn, B11 gave a binding signal of 0.383 enrichment R.

As to B12, the binding signal stood at 0.786 enrichment R.

In turn, B13 displayed a binding signal of 1.77 enrichment R.

For the molecule B14, the binding signal worked out at 0.734 enrichment R.

As to B15, the binding signal amounted to 0.982 enrichment R.

With B16, the binding signal is 0.489 enrichment R.

Molecule B17 returned a binding signal of 1.07 enrichment R.

Regarding B18, the binding signal was determined as 0.527 enrichment R.

B19: the binding signal was determined as 0.836 enrichment R.

With B20, the binding signal worked out at 1.3 enrichment R.

The molecule B21 registered a binding signal of 1.01 enrichment R.

For B22, the binding signal was 0.513 enrichment R.

Values taken from publication PMC12136788.
